The values that follow come from the supplement of paper PMC8512760.

What all share (experiment): cell viability relative to vehicle (% of vehicle); basal-like triple-negative breast cancer lines; higher = less cytotoxic
Details in all cases: 10 µM; 72 h

Assay [1] relates to HCC-1143.
Assay [2] concerns HCC-1187.
Assay [3] has as its system MDA-468.
Assay [4] has as its system SUM-149.

Some of the results follow. Repeats are few or missing, and single values can be far off.
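Also: stably firefly luciferase-GFP labeled cells in 96-well plates, viability read as luciferase photon flux after d-luciferin addition, treated wells normalized to vehicle wells, single-dose high-throughput screen.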

On to `COc1cc(Cc2cnc(N)nc2N)cc(OC)c1OC` [Trimethoprim], for which the cell viability in assay [1] was found to be 105; in assay [2], 116; in assay [3], 93.2; in assay [4], 98.5.
The like results for `COc1ccnc(C[S+]([O-])c2nc3cc(OC(F)F)ccc3[nH]2)c1OC` (stereo not given) [Pantoprazole] were, in that order, 103, 120, 101 and 95.
For `CC1c2cccc(O)c2C(O)=C2C(=O)C3(O)C(O)=C(C(N)=O)C(=O)C(N(C)C)C3C(O)C21.Cl` (stereo not given) [Doxycycline HCl] the same measures were 73.8, 84.8, 98.9 and 88.3.
For `Cl.O=C1OC(CN2CCOCC2)CN1N=Cc1ccc([N+](=O)[O-])o1` (stereo not given) [Furaltadone HCl] the same measures were 64.8, 90.9, 97.3 and 103.
On to `O=N[O-].[Na+]` [Sodium Nitrite], for which the cell viability was found to be 95.8 in assay [1], 110 in assay [2], 108 in assay [3] and 91.9 in assay [4].
With `CC(=O)O.NC(N)=NN=Cc1c(Cl)cccc1Cl` [Guanabenz Acetate], the cell viability in assay [1] was found to be 92.1; in assay [2], 101; in assay [3], 112; in assay [4] it was 98.7.
For `CS(=O)(=O)O.Cc1ccc(N(CC2=NCCN2)c2cccc(O)c2)cc1` [Phentolamine Mesylate] the same measures were 78.1, 98.5, 108 and 109.
In the case of `CC(=O)Oc1cccc2c1C(=O)c1c(OC(C)=O)cc(C(=O)O)cc1C2=O` [Diacerein], the cell viability in assay [1] is 94.3; in assay [2], 96.7; in assay [3], 128; in assay [4], 114.
The like results for `CC(NC(=O)Cc1cc(F)cc(F)c1)C(=O)NC(C(=O)OC(C)(C)C)c1ccccc1` (stereo not given) were, in that order, 94.8, 98.3, 97.9 and 121.
`COc1cc2nccc(Oc3ccc(NC(=O)C4(C(=O)Nc5ccc(F)cc5)CC4)cc3)c2cc1OC.O=C(O)CC(O)C(=O)O` [Cabozantinib malate (XL184)]: the cell viability in assay [1] worked out at 71.5; in assay [2], 88.3; in assay [3], 121; in assay [4] it was 84.9.
